Data from PubChem BioAssay AID485344 (National Center for Advancing Translational Sciences (NCATS), 2010).
Out of some 340,000 compounds screened, about 6,900 (2%) were called active. Rule as the data show it: active = inhibition above about 30%; inactive = below that, where a call was filed. Only a part is listed here, and it is no random draw. Where no call is shown, the source filed none.

Biological target: D(2) dopamine receptor (Homo sapiens) (UniProt P14416)
Test: HTS Assay for Allosteric Antagonists of the Human D2 Dopamine Receptor: Primary Screen for Antagonists; also: 0% is about no effect
Details: HEK293 TREx D2 cells, calcium flux, dopamine EC80; at 10 µM; stronger effect = higher value
How it was run: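 Calcium mobilization kinetics were recorded at 1 s intervals in tetracycline-induced HEK293 T-REx D2 cells, first for 180 s after compound addition and then 180 s after EC80 dopamine.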

Chain of UniProt P14416 (P14416 whole entry, looked up): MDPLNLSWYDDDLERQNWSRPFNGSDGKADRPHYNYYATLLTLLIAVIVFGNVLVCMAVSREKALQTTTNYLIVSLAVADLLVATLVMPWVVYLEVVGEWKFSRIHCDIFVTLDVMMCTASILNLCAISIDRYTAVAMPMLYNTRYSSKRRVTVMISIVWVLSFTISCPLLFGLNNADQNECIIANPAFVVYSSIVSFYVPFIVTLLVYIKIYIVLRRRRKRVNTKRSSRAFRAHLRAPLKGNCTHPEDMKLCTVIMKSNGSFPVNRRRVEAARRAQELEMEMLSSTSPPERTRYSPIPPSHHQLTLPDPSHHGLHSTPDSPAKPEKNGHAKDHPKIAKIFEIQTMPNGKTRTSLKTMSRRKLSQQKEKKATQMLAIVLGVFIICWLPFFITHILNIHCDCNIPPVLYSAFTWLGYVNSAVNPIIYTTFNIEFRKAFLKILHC

Compound	inhibition
O=C(NCC(c1ccco1)N1CCN(c2ccccc2F)CC1)c1ccco1 (stereo not given)	active: 53.7%
Cc1cc([N+](=O)[O-])ccc1NC(c1nnc(-c2ccccc2)o1)c1ccccc1F (stereo not given)	1.58%
CC(=O)N1CCc2cc(Br)cc(S(=O)(=O)CCC(=O)N3CCN(c4ccccc4)CC3)c21	-0.622%
Cc1cccc(N2CCN(C(=O)CN3C(=O)COc4ccc(S(=O)(=O)N5CCOCC5)cc43)CC2)c1C	-6.29%
CCC1CCCCN1C(=O)CSc1nc(-c2ccc(OC)c(OC)c2)cc(C(F)(F)F)n1 (stereo not given)	4.96%
CC1=C(C(=O)OC2CCCCCC2)C(c2cccc(F)c2F)CC(=O)N1 (stereo not given)	17.3%
O=C1/C(=C\c2ccco2)SC(=S)N1c1ccccc1	active: 47.5%
CCc1ccc(S(=O)(=O)Nc2ccc3[nH]c(=O)sc3c2)cc1	-0.163%
Cc1cccc(NC(=O)c2sc3nc4c(cc3c2N)CN(C(C)C)CC4)c1	13.7%
COCCCNC(=O)CSc1nc2cc3c(cc2c(=O)n1CCCCCC(=O)NCc1ccc2c(c1)OCO2)OCO3	-4.96%
CCCCNC(=O)C1CCC(CNS(=O)(=O)c2ccc(C)cc2)CC1 (stereo not given)	11%
Cc1nc(NC(=O)c2c(-c3ccccc3)c(-c3ccccc3)nn(C)c2=O)sc1C	11.5%
Cc1ccc(NC(=O)Cn2c(=O)n(CCCCC(=O)NCCc3ccc(Cl)cc3)c(=O)c3ccccc32)cc1	-0.157%
COc1ccc(CNC(=O)CN2C(=O)COc3ccc(S(=O)(=O)N4CCC(C)CC4)cc32)cc1	-0.714%
O=C(NCCN1CCN(c2ccccc2)CC1)c1cccc(Br)c1	active: 78%
COc1ccc(CCNC(=O)c2oc(=O)c3ccccc3c2-c2ccccc2)cc1OC	4.74%
COc1cc(NC(=O)CCS(=O)(=O)c2nc(-c3ccc4c(c3)OCO4)cc(C(F)(F)F)n2)cc(OC)c1OC	9.99%
COCCCN1C(=O)c2[nH]nc(-c3ccccc3O)c2C1c1ccc(OCc2ccccc2)cc1 (stereo not given)	16.9%
CCc1c(C)sc2c1CCN(C(=O)Nc1cc(C)cc(C)c1)C2c1ccccc1 (stereo not given)	-4.73%
COc1ccccc1NC(=O)C1CCN(S(=O)(=O)c2ccc3[nH]c4c(c3c2)CCCCC4)CC1	5.26%
CCN1CCN(C(c2ccc(SC)cc2)c2c(O)cc(C)n(Cc3ccco3)c2=O)CC1 (stereo not given)	-2.5%
Cc1cc(C)c(NC(=O)CCn2c(=O)c3cccn3c3ccccc32)c(C)c1	-4.38%
Oc1ccc(-c2nc(-c3ccccc3)c(-c3ccc(Br)cc3)[nH]2)cc1	7.37%
O=C(COC(=O)C(Cc1c[nH]c2ccccc12)NC(=O)c1ccc(Cl)cc1)c1ccc(Cl)cc1 (stereo not given)	1.09%
Cc1nn(-c2ccccc2)c2c1cc1c(=O)n(C)c(=O)nc-1n2-c1cccc(Cl)c1	24.2%
